Measurements from PubChem BioAssay AID1460 (National Center for Advancing Translational Sciences (NCATS), 2008).
Screen size: about 270,000 compounds; about 5,800 (2.1%) were called active. Another 16% or so got no clear call; they are omitted. Calls come from the whole dose curve; as a rule, active = well fitted inhibition curve with a large enough effect; inconclusive = small, poorly fitted or top-dose-only effect; inactive = flat fitted curve, though single readings scatter. Only a part is listed here, and it is no random draw.

molecular target: Microtubule-associated protein tau (Homo sapiens) (UniProt P10636); test: qHTS for Inhibitors of Tau Fibril Formation, Thioflavin T Binding; details: recombinant tau K18 P301L (four-repeat tau fragment), heparin-induced fibrillization, ThT fluorescence; series mostly up to 57.4 µM; activity, negative = inhibition: at the top concentration; note: nearly all actives have a fitted effect of over 55% in size
Chain of UniProt P10636 (P10636 whole entry, looked up, the tested form may be a part): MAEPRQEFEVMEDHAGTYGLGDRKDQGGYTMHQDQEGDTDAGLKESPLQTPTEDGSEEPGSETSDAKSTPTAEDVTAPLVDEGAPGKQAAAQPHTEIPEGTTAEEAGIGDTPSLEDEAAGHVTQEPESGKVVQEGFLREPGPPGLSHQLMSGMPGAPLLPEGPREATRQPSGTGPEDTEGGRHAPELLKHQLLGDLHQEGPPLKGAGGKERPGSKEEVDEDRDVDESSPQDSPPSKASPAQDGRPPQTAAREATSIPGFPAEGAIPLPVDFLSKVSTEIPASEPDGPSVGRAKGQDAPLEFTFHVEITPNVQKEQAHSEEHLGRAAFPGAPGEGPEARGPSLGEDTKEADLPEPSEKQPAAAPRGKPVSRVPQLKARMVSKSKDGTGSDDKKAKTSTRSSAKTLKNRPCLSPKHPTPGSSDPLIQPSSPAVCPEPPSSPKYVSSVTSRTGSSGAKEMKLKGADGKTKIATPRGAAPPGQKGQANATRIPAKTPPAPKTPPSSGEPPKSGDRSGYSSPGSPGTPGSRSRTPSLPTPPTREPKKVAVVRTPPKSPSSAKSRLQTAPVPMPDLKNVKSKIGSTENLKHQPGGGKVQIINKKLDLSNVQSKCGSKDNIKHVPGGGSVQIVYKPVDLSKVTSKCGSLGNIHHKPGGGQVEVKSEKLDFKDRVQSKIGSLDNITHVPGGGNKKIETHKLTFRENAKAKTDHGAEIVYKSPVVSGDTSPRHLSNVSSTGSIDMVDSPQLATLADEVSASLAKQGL
Procedure, shortened: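 Heparin-induced fibrillization of the P301L-mutant K18 repeat-domain fragment of human tau was followed by ThT binding in quantitative high-throughput format.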
% is set by controls: 0 for no effect and ±100 for the full control effect; potency is the fitted concentration of half-maximal effect.

SMILES | activity, negative = inhibition | Potency
O=C(c1ccc(C(F)(F)F)cc1)N1CCC(=O)N([C@H](COCc2ccc(Cl)cc2)Cc2ccccc2)CC1 | inactive: -15.5% | 
CC1c2cccc(O)c2C(O)=C2C(=O)[C@]3(O)C(O)=C(C(N)=O)C(=O)C(N(C)C)C3C(O)C21 (some centres not stated) | inactive: -9.38% | 
O=[N+]([O-])c1cc(Cl)c(O)c2ncccc12 |  | active: 12.6 µM
COc1ccc(-c2ccc(C(=S)N3CCN(C(C)=O)CC3)o2)cc1 |  | active: 28.2 µM
CCC(=O)OCC(=O)[C@@]1(OC(=O)CC)[C@@H](C)C[C@H]2[C@@H]3CCC4=CC(=O)C=C[C@]4(C)[C@@]3(F)[C@@H](O)C[C@@]21C | inactive: -18% | 
COC(=O)CCC(=O)OC1(C)C(=O)C=C2C=C(C3CC3)N(CC3CC3)C=C2C1=O (configuration not stated) | inactive: -12.4% [at 11.5 µM] | 
C[C@]1(C(=O)NCCc2c[nH]c3ccccc23)C=C[C@@H](Cc2ccccc2)N1C(=O)c1ccccc1 | inactive: 3.63% | 
COc1ccc2c(c1)C(=O)[C@@H](OC(=O)NCc1ccc3c(c1)OCO3)[C@H](c1ccc(OC)c(Br)c1)O2 | inactive: -3.34% | 
CCCCc1oc2ccccc2c1C(=O)c1cc(I)c(OCCN(CC)CC)c(I)c1 |  | inactive
CN(Cc1cnc2nc(N)nc(N)c2n1)c1ccc(C(=O)NC(CCC(=O)O)C(=O)O)cc1 (configuration not stated) | inactive: -6.35% | 
CCc1ccccc1N1CSC2=C(C#N)C(c3ccccc3F)CC(=O)N2C1 (configuration not stated) |  | active: 28.2 µM
COc1ccc(Nc2c(-c3ccco3)nc3cccc(C)n23)cc1 | inactive: -19.6% | 
O=C(Nc1ccc([N+](=O)[O-])cc1Cl)c1cc(Cl)ccc1O |  | active: 7.08 µM
COc1ccc(-c2cc(=O)c3c(OC)c(OC)c(OC)c(OC)c3o2)cc1OC |  | inactive
COC(=O)CCCC1=CC2=CC(=O)C(C)(OC(=O)c3cccs3)C(=O)C2=CN1Cc1ccco1 (configuration not stated) | inactive: -15.5% [at 11.5 µM] | 
Cc1cccc(C2NC(=O)c3c(sc4c3CCN(C)C4)N2)c1O (configuration not stated) |  | active: 15.8 µM

SMILES | activity, negative = inhibition | Potency
CCCCCCN(C(=O)CCCCCN1C(=O)NC(c2ccc(-c3ccccc3)cc2)C(C(=O)OCc2ccccc2)=C1C)C(C(=O)NCCCC)c1cccc(C(=O)OC)c1 (configuration not stated) | inactive: -8.26% | 
Cc1ccc(-c2csc(NNC(=O)c3ccccc3)n2)cc1 |  | active: 12.6 µM
CC(C)CN1C=C2C(=O)C(C)(OC(=O)CCc3ccccc3)C(=O)C=C2C=C1c1ccc(C#N)cc1 (configuration not stated) | inactive: 8.8% [at 11.5 µM] | 
O=C(C1=C[C@@H](c2ccc(Br)cc2)C[C@@H](OCCCCO)O1)N1CCOCC1 | inactive: -6.46% | 
Cc1cccc(C(=O)N2CCC(=O)N(C(COCc3ccccc3)Cc3ccccc3)CC2)c1 (configuration not stated) | inactive: -3.15% | 
CCCCCCN(C(=O)CCCCCN1C(=O)NC(c2ccc(-c3ccccc3)cc2)C(C(=O)OCc2ccccc2)=C1C)C(C(=O)NCCCC)c1ccc(OCC(=O)OC)cc1 (configuration not stated) | inactive: -11.5% | 
CN(C)CCCc1cc(C(=O)Nc2ccc(-c3ccncc3)cc2)ccc1O | inactive: 1.1% | 
Nc1nc2c(nc(Br)n2[C@@H]2O[C@H]3COP(=O)(O)O[C@H]3[C@@H]2O)c(=O)[nH]1 | inactive: -6.61% | 
Cc1sc2c3ccsc3ccc2[n+]1C |  | active: 25.1 µM
Cc1ccccc1/C=C\c1nc2ccccc2c(=O)n1Cc1ccccc1 | inactive: -6.64% | 
COc1ccc(C(=O)/C=C/c2ccc(F)cc2)c(OC(=O)c2ccc([N+](=O)[O-])cc2)c1 |  | active: 10 µM
O=C(Nc1ccccc1C(F)(F)F)N1CCN(c2ccc3nnc(-c4ccc(F)cc4)n3n2)CC1 | inactive: -7.68% | 
Clc1ccc(C(c2ccccc2Cl)C(Cl)Cl)cc1 (configuration not stated) | inactive: -15% | 
O=C(/C=C/c1ccccc1[N+](=O)[O-])Nc1ccccc1 | inactive: -15.9% | 
C=CCN1CCc2cc(O)c(O)cc2C(c2ccccc2)C1 (configuration not stated) | inactive: -19.4% | 
NC(=O)C1=C[C@@H](c2ccc(C(F)(F)F)cc2)C[C@@H](OCCCCO)O1 | inactive: -15.6% | 
